# Results taken from PubChem BioAssay (Tox21).
# Values joined by “and” are separate entries in the source; they are usually repeats but may differ in a detail not shown here. Identical values can stand only once. This list was built around the results that the source calls inconclusive (neither active nor inactive); the mix of calls is not that of the screen. Where the call is inconclusive, the potency comes from a doubtful curve fit. Some compounds were tested as several samples or in several runs, with calls that do not always agree. Active and inactive are the calls of the source. Unless noted, the call rests on the fitted dose curve; in most records, active means well fitted curve in the direction sought with a large enough effect in the repeat runs; inconclusive means weak or mixed curves; inactive means no such curve, though single readings can be large; an effect the other way counts as inactive or inconclusive.
# Columns and labels:
# [1] = qHTS assay to identify small molecule agonists of H2AX (AID 1224845; active means well fitted activation curve with a large enough effect in the signal ratio in the repeat runs, not every such curve was filed as active; inconclusive means weak or mixed curves; the % refers to the signal ratio; on activation (H2AX phosphorylation): on the % scale 0 is the no-effect control and ±100 the full control effect); conditions: CHO-K1 phospho-H2AX Ser139 HTRF, 3 h; activation (H2AX phosphorylation): at 154 µM (top of the series) unless noted
# How it was run: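 Phospho-H2AX Ser139 measured by HTRF (ex 320 nm; em 665 and 620 nm) after 24 hr antibody incubation. Compounds, 15 concentrations, 0.76% DMSO, were applied to CHO-K1 cells for 3hr at 37C before lysis.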
# [2] = qHTS assay to identify small molecule agonists of the hypoxia (HIF-1) signaling pathway (AID 1224846; active means well fitted activation curve with a large enough effect in the signal ratio in the repeat runs, not every such curve was filed as active; inconclusive means weak or mixed curves; the % refers to the signal ratio; on activation: on the % scale 0 is the no-effect control and ±100 the full control effect); conditions: HRE-bla ME-180 cells, beta-lactamase ratio, 17 h; activation: at 76.8 µM (top of the series) unless noted
# How it was run: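 A low-serum medium (0.5% dialyzed FBS) holding 2,000 HRE-bla ME-180 cells per well is preincubated for 5 hrs, dosed with compounds by pintool, and kept a further 17 hrs at 37C, 5% CO2 before CCF4-AM FRET detection of beta-lactamase.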
# [3] = qHTS RealTime-Glo MT Cell Viability Assay in HepG2 cells - 40 hour (AID 1224870); further: nearly all actives have a fitted effect of over 50% in size
# How it was run: (§1)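 Real-time viability: cells seeded at 600 per well together with NanoLuc and cell-permeant prosubstrate, compounds added after 5 h incubation. Luminescence tracked at 0, 8, 16, 24, 32 and 40 h of exposure.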
# [4] = qHTS RealTime-Glo MT Cell Viability Assay in HEK293 cells - 40 hour (AID 1224874); conditions: RealTime-Glo luminescence; max response: stronger effect = lower value; further: nearly all actives have a fitted effect of over 50% in size
# How it was run: (§2)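 Viable HEK293 cells reduce a cell-permeant prosubstrate; the product diffuses out and is consumed by NanoLuc in the medium to give light. Compounds went in after a 5 h incubation and plates were read over the treatment course.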
# [5] = A CellTox Green Cytotoxicity Assay to monitor cytotoxicity in HEK293 cells - 24 hour (AID 1224875); further: nearly all actives have a fitted effect of over 45% in size
# How it was run: (§3)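 Fluorescence intensity, read at 0, 8, 16, 24, 32 and 40 h of compound treatment, reflected dye binding to DNA of dead HEK293 cells; compounds (23 nL, DMSO) were added 5 h after plating cells with reagent.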
# [6] = qHTS RealTime-Glo MT Cell Viability Assay in HepG2 cells - 32 hour (AID 1224877); further: nearly all actives have a fitted effect of over 55% in size
# How it was run: (§4)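 HepG2 cells (600/well) were dispensed with RealTime-Glo reagents, incubated 5 h at 37 °C, then treated with compounds in DMSO for up to 40 h. Nonlytic NanoLuc luminescence reflecting viable cells was read at each stated time point.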
# [7] = A CellTox Green Cytotoxicity Assay to monitor cytotoxicity in HepG2 cells - 24 hour (AID 1224878); further: nearly all actives have a fitted effect of over 45% in size
# How it was run: (§5)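 Using 1536-well format, dye-containing HepG2 suspension was seeded, allowed 5 h at 37 C/5% CO2, dosed by pintool with compounds, positive and negative controls, and imaged for fluorescence across 40 h.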
# [8] = A CellTox Green Cytotoxicity Assay to monitor cytotoxicity in HepG2 cells - 40 hour (AID 1224879); further: nearly all actives have a fitted effect of over 40% in size
# How it was run: as §5
# [9] = qHTS assay to identify small molecule agonists of H2AX - cell viability counter screen (AID 1224847; calls by dose curve; further: nearly all actives have a fitted effect of over 30% in size)
# How it was run: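 For this counter screen, overnight-attached CHO-K1 cells received test compounds (15 concentrations, 0.76% DMSO final); 3 hr later at 37C, CellTiter-Glo reagent was added and luminescence recorded after 30 min at room temperature.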
# [10] = qHTS assay to identify small molecule antagonists of the estrogen related receptor (ERR) signaling pathway from Tox21 library (AID 1224848); further: nearly all actives have a fitted effect of over 50% in size
# How it was run: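 Antagonist-mode screen of the Tox21 10K library in an NTP-provided ERR reporter cell line; 18 h compound exposure at 37 C, luminescence measured with ONE-Glo.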
# [11] = qHTS RealTime-Glo MT Cell Viability Assay in HEK293 cells - 32 hour (AID 1224868); further: nearly all actives have a fitted effect of over 50% in size
# How it was run: (§6)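 HEK293 cells seeded with NanoLuc/prosubstrate reagent, rested 5 h at 37 C, then dosed and kept at 37 C up to 40 h. Nonlytic real-time luminescence from viable cells read at 0, 8, 16, 24, 32 and 40 h.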
# [12] = A CellTox Green Cytotoxicity Assay to monitor cytotoxicity in HEK293 cells - 40 hour (AID 1224871); further: nearly all actives have a fitted effect of over 45% in size
# How it was run: as §3
# [13] = qHTS RealTime-Glo MT Cell Viability Assay in HEK293 cells - 16 hour (AID 1224872); further: nearly all actives have a fitted effect of over 50% in size
# How it was run: as §6
# [14] = A CellTox Green Cytotoxicity Assay to monitor cytotoxicity in HepG2 cells - 16 hour (AID 1224876); further: nearly all actives have a fitted effect of over 45% in size
# How it was run: as §5
# [15] = A CellTox Green Cytotoxicity Assay to monitor cytotoxicity in HEK293 cells - 32 hour (AID 1224881); further: nearly all actives have a fitted effect of over 40% in size
# How it was run: as §3
# [16] = qHTS RealTime-Glo MT Cell Viability Assay in HepG2 cells - 24 hour (AID 1224867); further: nearly all actives have a fitted effect of over 50% in size
# How it was run: as §4
# [17] = qHTS RealTime-Glo MT Cell Viability Assay in HEK293 cells - 0 hour (AID 1224880); further: nearly all actives have a fitted effect of over 45% in size
# How it was run: as §2
# [18] = qHTS RealTime-Glo MT Cell Viability Assay in HepG2 cells - 8 hour (AID 1224873); further: nearly all actives have a fitted effect of over 55% in size
# How it was run: as §1
# Potency means the concentration at half of the fitted maximal effect; tags describe the fitted curve by direction and shape or compound fluorescence and quenching.
smiles,measurement,setting,value
NCc1cccc(C2CCN(C(=O)c3ccc(C#Cc4ccccc4F)o3)CC2)c1,Potency,[1],"inconclusive: 50.5 µM [activator, single point]"
same,Potency,[2],"inconclusive: 61.6 µM [falling, single point]"
same,Potency,[3],"inconclusive: 54.9 µM [falling, single point]"
same,Potency,[4],"inconclusive: 54.9 µM [cytotoxic, single point]"
same,Potency,[5],active: 49 µM
same,Potency,[6],"inconclusive: 54.9 µM [cytotoxic, single point]"
same,Potency,[7],active: 38.9 µM
same,Potency,[8],active: 43.6 µM
Nc1nc(N)c2nc(-c3ccccc3)c(N)nc2n1,Potency,[1],"inconclusive: 40.5 µM [fluorescent, partial curve, poor fit] and inconclusive: 45 µM [fluorescent, partial curve] and inconclusive: 49.2 µM [fluorescent, partial curve]"
same,Potency,[9],"inconclusive: 113 µM [cytotoxic, single point] and inconclusive: 61.9 µM [cytotoxic]"
same,Potency,[10],"inconclusive: 33.5 µM [inhibitor, single point]"
same,Potency,[11],"inconclusive: 24.8 µM [cytotoxic, full curve] and inconclusive: 19.5 µM [cytotoxic, full curve]"
same,Potency,[3],"inconclusive: 54.9 µM [falling, single point]"
same,Potency,[12],"inconclusive: 55.6 µM [activator, single point]"
same,Potency,[13],"inconclusive: 21.9 µM [cytotoxic, single point]"
same,Potency,[14],"inactive and inconclusive: 54.9 µM [activator, single point]"
same,Potency,[6],"inconclusive: 54.9 µM [cytotoxic, single point]"
same,Potency,[7],inconclusive: 55.6 µM [activator]
same,Potency,[8],"inconclusive: 26.8 µM [activator, single point]"
same,Potency,[15],"inconclusive: 55.6 µM [activator, single point]"
O=Nc1ccc(Nc2ccccc2)cc1,Potency,[1],"inconclusive: 45.2 µM [falling, partial curve] and inconclusive: 45 µM [falling, partial curve]"
same,Potency,[2],inconclusive: 55.3 µM [single point] and inconclusive: 54.9 µM
same,Potency,[5],active: 6.2 µM and active: 7.76 µM
O=C1CCC/C=C\CCCCCCCCCC1,Potency,[1],"inconclusive: 113 µM [activator, single point]"
same,Potency,[2],inconclusive: 61.7 µM [single point]
same,Potency,[7],"inconclusive: 54.9 µM [activator, single point]"
same,Potency,[8],"inconclusive: 54.9 µM [activator, single point]"
same,Potency,[15],"inconclusive: 34.7 µM [activator, partial curve, poor fit]"
O=C(Nc1cccc(C(F)(F)F)c1)c1cc(Br)cc(Br)c1O,activation (H2AX phosphorylation),[1],inconclusive: 9.36%
same,Potency,[2],"inconclusive: 24.5 µM [falling, partial curve]"
same,Potency,[16],"inconclusive: 15.5 µM [falling, partial curve]"
same,Potency,[13],"inconclusive: 4.9 µM [cytotoxic, full curve, poor fit]"
same,Potency,[4],active: 3.89 µM
same,Potency,[7],active: 19.5 µM
same,Potency,[8],active: 19.5 µM
same,Potency,[17],"inconclusive: 43.6 µM [falling, partial curve]"
CCCCc1oc2ccccc2c1C(=O)c1cc(I)c(OCCN(CC)CC)c(I)c1,Potency,[1],"inconclusive: 90.5 µM [activator, single point] and inconclusive: 61.9 µM [activator]"
same,Potency,[2],inconclusive: 44 µM [single point] and inconclusive: 26.8 µM
same,Potency,[13],active: 39.2 µM and active: 21.3 µM
same,Potency,[4],active: 34.9 µM
same,Potency,[5],"inconclusive: 44 µM [activator, single point] and inconclusive: 26.8 µM [activator, single point]"
same,Potency,[14],"inconclusive: 26.8 µM [activator, single point]"
same,Potency,[7],"active: 39.2 µM and inconclusive: 26.8 µM [activator, single point]"
same,Potency,[8],active: 31.1 µM and active: 26.8 µM
same,Potency,[15],"inconclusive: 26.8 µM [activator, single point]"
CC/C(=C(\c1ccc(O)cc1)c1ccc(OCCN(C)C)cc1)c1ccccc1,activation (H2AX phosphorylation),[1],inconclusive: -8.52%
same,Potency,[2],inconclusive: 61.8 µM
same,Potency,[13],active: 24.6 µM
same,Potency,[4],active: 17.4 µM
same,Potency,[5],active: 49.1 µM
same,Potency,[14],"inconclusive: 61.8 µM [activator, single point]"
same,Potency,[7],active: 55.1 µM
same,Potency,[8],active: 55.1 µM
CCCCCCCCCCCCCCNCCO,Potency,[1],active: 43.8 µM
same,Potency,[2],inactive
same,Potency,[13],active: 21.3 µM
same,Potency,[18],active: 19 µM
same,Potency,[4],active: 12 µM
same,Potency,[5],active: 19 µM
same,Potency,[14],active: 10.7 µM
same,Potency,[17],"inconclusive: 16.9 µM [rising, partial curve]"
same,Potency,[15],active: 19 µM
Cc1oc(-c2ccccc2)nc1CCOc1ccc(C[C@H](Nc2ccccc2C(=O)c2ccccc2)C(=O)O)cc1,Potency,[1],"inconclusive: 45 µM [activator, full curve]"
same,Potency,[2],"inconclusive: 49 µM [falling, partial curve]"
same,Potency,[6],inactive
same,Potency,[7],"inconclusive: 54.9 µM [activator, partial curve, poor fit]"
same,Potency,[8],"inconclusive: 54.9 µM [activator, single point]"
CC=O,Potency,[1],"inconclusive: 118 µM [activator, single point]"
same,Potency,[2],"inconclusive: 40.7 µM [falling, partial curve]"
same,Potency,[13],active: 4.57 µM
same,Potency,[18],"inconclusive: 57.5 µM [falling, single point]"
same,Potency,[4],active: 0.324 µM
same,Potency,[5],active: 57.5 µM
same,Potency,[6],active: 45.7 µM
same,Potency,[8],active: 25.7 µM
same,Potency,[15],active: 51.3 µM
CN1CCC[C@@H]1CCO[C@](C)(c1ccccc1)c1ccc(Cl)cc1,Potency,[1],inconclusive: 61.9 µM [activator]
same,Potency,[9],"inconclusive: 55.2 µM [cytotoxic, single point]"
same,Potency,[10],"inconclusive: 33.5 µM [inhibitor, single point]"
same,Potency,[16],active: 23.9 µM
same,Potency,[13],active: 19 µM
same,Potency,[8],active: 21.3 µM
same,Potency,[17],"inconclusive: 21.3 µM [rising, partial curve]"
same,Potency,[15],active: 26.8 µM
O=C1CCCCCCCCCCCCCC1,activation (H2AX phosphorylation),[1],inconclusive: 8.98%
same,Potency,[2],inconclusive: 61.7 µM
same,Potency,[12],active: 43.6 µM
same,Potency,[7],"inconclusive: 54.9 µM [activator, partial curve, poor fit]"
same,Potency,[8],"inconclusive: 54.9 µM [activator, partial curve, poor fit]"
same,Potency,[15],active: 43.6 µM
Cc1ccc2nc(-c3ccc(N)cc3)sc2c1S(=O)(=O)O,Potency,[1],"inconclusive: 55.8 µM [activator, partial curve, poor fit]"
same,activation,[2],inconclusive: 8.15% [at 35.5 µM]
same,Potency,[14],inactive
Cc1c(C)n(Cc2ccccc2)c2ccc(C(=O)OCCN(C)C)cc12,Potency,[1],active: 6.19 µM
same,Potency,[9],"inconclusive: 55.2 µM [cytotoxic, single point]"
same,Potency,[16],"inconclusive: 23.9 µM [falling, partial curve]"
same,Potency,[12],"inconclusive: 23.9 µM [activator, single point]"
same,Potency,[4],"inconclusive: 21.3 µM [cytotoxic, partial curve]"
same,Potency,[5],"inconclusive: 23.9 µM [activator, single point]"
same,Potency,[15],"inconclusive: 23.9 µM [activator, single point]"
Clc1ccc(C(c2ccccc2Cl)C(Cl)Cl)cc1 (stereo not given),Potency,[1],active: 113 µM
same,Potency,[9],"inconclusive: 61.9 µM [cytotoxic, single point]"
same,Potency,[16],"inconclusive: 61.7 µM [falling, partial curve, poor fit]"
same,Potency,[13],"inconclusive: 38.9 µM [cytotoxic, partial curve] and inconclusive: 26.8 µM [cytotoxic, partial curve, poor fit]"
same,Potency,[4],"inconclusive: 43.6 µM [cytotoxic, partial curve]"
same,Potency,[14],"inconclusive: 61.7 µM [activator, partial curve, poor fit]"
same,Potency,[6],inactive
same,Potency,[7],"inconclusive: 61.7 µM [activator, single point]"
same,Potency,[8],"inconclusive: 61.7 µM [activator, single point]"
same,Potency,[15],"inconclusive: 61.7 µM [activator, single point]"
